# Among all 380,000 compounds or so, about 4,000 (1.1%) were called active. Inconclusive means that the source gave no clear call. Such entries were picked first, then a sample of the others. Calls come from the whole dose curve; as a rule, active = well fitted activation curve with a large enough effect; inconclusive = small, poorly fitted or top-dose-only effect; inactive = no such curve, though single readings can be large or run the other way. Where the call is inconclusive, the potency comes from a doubtful curve fit.
# Assay: qHTS Assay to Identify Small Molecule Activators of BRCA1 Expression; note: nearly all actives have a fitted effect of over 80% in size
# Details: MCF7-BRCA1-FFLuc reporter, luminescence, 48 h; activation: at 46.1 µM (top of the series), scaled: vehicle 0%, 10 µM genistein 100% unless noted
# How it was run: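 MCF7-BRCA1-FFLuc, 2000 cells/well; 2 h attach, 37 °C/5% CO2; compound 48 h; luciferase substrate 15 min; luminescence end-point. Norm. to genistein 10 microM max activation and DMSO; concentration-response curves fitted.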
# Potency is the fitted concentration of half-maximal effect; tags give direction and shape of the fitted curve.
SMILES,activation,Potency
CN(C)CCCNC(=S)Nc1ccc(-c2ccccc2)cc1,inactive: -28.2%,
COc1ccc(-c2csc(N)n2)cc1,,active: 10 µM
Fc1ccc(-c2ccc(CNCc3ccccn3)o2)cc1,,"inconclusive: 11.2 µM [activator, partial curve, poor fit]"
CCC(C)c1ccc(NC(=O)c2cccnc2)cc1 (stereo unspecified),,active: 3.55 µM
Cc1ccc(C(=O)CSc2nnc3n2CCCCC3)s1,,"inconclusive: 14.1 µM [activator, partial curve, poor fit]"
COc1cc2c(c(OC)c1OC)-c1ccc(SC)c(=O)cc1C(N)CC2 (stereo unspecified),inconclusive: -78.8% [activator],
OC(COc1ccc2cc(Br)ccc2c1)CN1CCCC1 (stereo unspecified),,"inconclusive: 15.8 µM [activator, single point]"
CC(=O)N1N=C(c2ccc(C)cc2)OC1c1ccc(C(C)C)cc1 (stereo unspecified),,active: 7.94 µM
Cc1cccc2c1NC(=O)C2(c1ccc(O)cc1)c1ccc(O)cc1,inconclusive: -76.8% [activator],
N#C/C(=C\c1ccc(OCc2ccc(Br)cc2)cc1)C(=O)Nc1cccc(C(=O)O)c1,,active: 7.08 µM
C=C(C)CNC(=O)CCc1nnc(Cc2cccc(C(F)(F)F)c2)o1,,"inconclusive: 15.8 µM [activator, single point]"
C/C(NC(=O)c1cccc(F)c1)=C1/C(=O)C[C@@H]2[C@H]1C2(C)C,,"inconclusive: 17.8 µM [activator, partial curve, poor fit]"
Cc1ccc(CNC(=O)Cn2ccc3cc(S(=O)(=O)N4CCCCCC4)ccc32)cc1,inactive: -32.9%,
CCOc1ccccc1C1C(C(=O)N2CCCCC2)=C(C)Nc2nc3ccccc3n21 (stereo unspecified),inactive: 15.8%,
CCOC(=O)c1ccc(-n2c(=O)[nH]c3ccccc3c2=O)cc1,,"inconclusive: 17.8 µM [activator, partial curve, poor fit]"
Cc1cc(C(=O)Nc2ccc3ccccc3c2)oc1C,,"inconclusive: 0.562 µM [activator, full curve, poor fit]"
CCOC(=O)c1sc(S(C)=O)c2c1CCc1conc1-2 (stereo unspecified),inactive: -38.2%,
O=C(CSc1nnc(-c2ccccn2)o1)Nc1ccccc1F,,"inconclusive: 1.26 µM [activator, partial curve, poor fit]"
O=C(O)c1ccc(COc2ccc([N+](=O)[O-])cc2Cl)cc1,,active: 12.6 µM
COc1ccc(-c2n[nH]c(=S)n2-c2ccc(C)cc2C)cc1,inactive: -10.5%,
CCc1ccc(NC(=O)C(=S)NC2CCCCC2)cc1,,active: 2 µM
CN(C)C(=S)SCC(=O)NCc1ccc(F)cc1,,"inconclusive: 12.6 µM [activator, partial curve, poor fit]"
Cc1ccc(-c2cc(N)n(-c3ccc(F)cc3)n2)cc1,,active: 5.01 µM
Cc1ccc(-n2ncc3c(N4CCCC(C)C4)ncnc32)c(C)c1 (stereo unspecified),,"inconclusive: 2 µM [activator, partial curve, poor fit]"
O=C1C=CC(=Nc2cccc3c2C(=O)c2ccccc2-3)O1,,"inconclusive: 35.5 µM [activator, single point]"
O=C(Nc1ccc2c(c1)OCCO2)c1cnccn1,,"inconclusive: 2 µM [activator, partial curve, poor fit]"

SMILES,activation,Potency
O=C(Nc1ccc(N2CCN(Cc3ccccc3F)CC2)cc1)c1ccc([N+](=O)[O-])o1,inactive: -91.7%,
COc1ccc(NC(=O)COc2ccc(-c3nn(C)c(=O)c4ccccc34)cc2)cc1,,inactive
COC(=O)c1ccc2c(=O)[nH]c(CN3c4ccccc4CC3C)nc2c1 (stereo unspecified),inactive: -10.1%,
Cc1ccc(NC(=O)NCCc2c(C)nn(C)c2C)cc1Cl,,"inconclusive: 35.5 µM [activator, single point]"
c1ccc(COc2ccc(OCCCN3CCCCC3)cc2)cc1,,"inconclusive: 31.6 µM [activator, single point]"
COc1ccc(NC(=O)c2ccc3c(c2)OCO3)cc1,,"inconclusive: 0.631 µM [activator, full curve, poor fit]"
C=C1CC2(CC(c3ccccc3)OC(c3ccccc3)C2)OC1=O (stereo unspecified),inactive: -85.7%,
Cc1sc2ncn(CC(=O)N(C)c3ccc(Br)cc3)c(=O)c2c1S(=O)(=O)N1CCC(C)CC1,inactive: -0.676%,
Cc1nc(C)c(-c2csc(Nc3ncccc3C)n2)s1,,"inconclusive: 2 µM [activator, full curve, poor fit]"
S=C(Nc1ccc(Br)cc1)Nc1ccc2c(c1)OCCO2,,active: 11.2 µM
Cc1ccc(CSc2nnc(-c3ccc(NC(=O)CCc4ccccc4)cc3)n2C)cc1,inactive: 23.5%,
CCCCSc1nc2ccccc2[nH]1,,"inconclusive: 10 µM [activator, partial curve, poor fit]"
CC1(C(=O)NCCC(F)(F)F)Cc2c(-c3cccc(C(F)(F)F)c3)ccnc2O1 (stereo unspecified),inactive: -42.9%,
Nc1c(C(=O)NCCc2ccccc2)nnn1Cc1ccccc1,,"inconclusive: 11.2 µM [activator, partial curve, poor fit]"
CCOC(=O)c1c(C)nc2c3ccccc3ccn12,,"inconclusive: 28.2 µM [activator, single point]"
c1csc(-c2ccc3ccccc3n2)c1,,active: 7.08 µM
Cc1ccc(NC(=S)N2CCSC2c2cccs2)cc1 (stereo unspecified),,"inconclusive: 10 µM [activator, partial curve, poor fit]"
CN(C)/C=N/C(=S)Nc1ccc(Br)cc1F,,"inconclusive: 2.82 µM [activator, partial curve, poor fit]"
O=C(Nc1ccccc1Br)c1ccc2nccnc2c1,,"inconclusive: 1.58 µM [activator, full curve, poor fit]"
Nc1nccc(-c2cc(-c3ccc(Cl)cc3Cl)no2)n1,,"inconclusive: 0.501 µM [activator, full curve, poor fit]"
c1ccn2c(SCc3cn4ccsc4n3)nnc2c1,,active: 5.01 µM
C=CCn1c(COc2ccc(Cl)cc2)nnc1SCC(=O)N/N=C/c1cccc(O)c1,inactive: -11.1%,
NC(=S)NN=C1c2ccccc2-c2ccccc21,inactive: 1.78%,
COc1ccc(/C=C2\N=C3CCCN3C2=O)cc1,,"inconclusive: 15.8 µM [activator, partial curve, poor fit]"
CC(C)(C)C(=O)NC(=S)NNC(=O)c1ccncc1,inactive: 36.8%,
COc1ccc(-c2cc(C(F)(F)F)n3nc(C(=O)Nc4ccccc4SC)cc3n2)cc1OC,inconclusive: 140% [activator],

SMILES,activation,Potency
CCc1ccc(N2C(=O)C3C4C=CC(CC4)C3C2=O)cc1 (stereo unspecified),,"inconclusive: 14.1 µM [activator, single point]"
Nc1ccccc1C=C1Cc2ccccc2C1=O,,"inconclusive: 2 µM [activator, partial curve, poor fit]"
O=C(NCCc1c[nH]c2ccccc12)c1cccc(S(=O)(=O)Nc2ccccc2Cl)c1,inactive: -34.9%,
NC(=N\N=CCc1ccccc1)/C(N)=N/N=CCc1ccccc1,,"inconclusive: 12.6 µM [activator, single point]"
Cc1[nH]c2ccc(C(=O)N3CCCCC3)cc2c1C,,"inconclusive: 1.58 µM [activator, full curve, poor fit]"
Cc1cc(NC(=O)c2ccccc2F)on1,,"inconclusive: 11.2 µM [activator, partial curve, poor fit]"
COc1ccccc1N1C(=O)S/C(=C\c2cc(C)n(C)c2C)C1=O,,active: 5.62 µM
COC(=O)c1ccc(NC(=O)Nc2ccc3c(c2)OCO3)cc1,,"inconclusive: 11.2 µM [activator, partial curve, poor fit]"
Cc1nn(-c2ccccc2)c(C)c1/C=N/n1c(-c2ccccc2Br)n[nH]c1=S,inactive: -52.1%,
S=C(c1ccc(-c2ccc(Cl)cc2)o1)N1CCCCC1,,"inconclusive: 2 µM [activator, partial curve, poor fit]"
O=C(Nc1nc2cc3c(cc2s1)OCCO3)c1ccco1,inconclusive: -81% [activator],
Cc1ccc(NC(=O)O/N=C/c2c(C)nn(C(C)(C)C)c2C)cc1Cl,inconclusive: -109% [activator],
COc1ccc(C(=O)NCCCc2ccccc2)cc1,,"inconclusive: 1.26 µM [activator, full curve, poor fit]"
CCCCS/C(N)=N/N=C/c1ccccc1O,,active: 7.94 µM
C/C(=N\OC(=O)c1ccccc1)c1cc(-c2ccc(Cl)cc2)no1,,active: 2.82 µM
COc1ccc(C(=O)Oc2cc(N)n(S(=O)(=O)c3ccc(C)cc3)n2)cc1,inactive: 0.456%,
COc1ccc(Cl)cc1-n1nnc(-c2nsc(NC(=O)c3ccccc3Cl)n2)c1C,inactive: 5.95%,
Oc1ccc(F)cc1-c1cc(-c2ccc3c(c2)OCCO3)n[nH]1,,"inconclusive: 2.51 µM [activator, partial curve, poor fit]"
O=C(/C=C/N1CCOCC1)c1ccc(-c2ccccc2)cc1,,"inconclusive: 14.1 µM [activator, partial curve, poor fit]"
O=C1/C(=C/c2cccnc2)CCc2c1[nH]c1ccccc21,,"inconclusive: 17.8 µM [activator, partial curve, poor fit]"
COc1cccc(C2CC(=O)N3CN(c4cccc(Cl)c4C)CSC3=C2C#N)c1OC (stereo unspecified),inactive: 17%,
COc1cccc(N2CCN(C3C4CC5CC(C4)CC3C5)CC2)c1 (stereo unspecified),,"inconclusive: 22.4 µM [activator, single point]"
Cc1cc(C(=O)COc2ncnc3sccc23)c(C)n1C,,"inconclusive: 1.41 µM [activator, full curve, poor fit]"
COc1ccc2nc(N(CCN(C)C)C(=O)c3ccc4ncsc4c3)sc2c1,,"inconclusive: 1.78 µM [activator, full curve, poor fit]"

# Reference: PubChem BioAssay AID624202 (National Center for Advancing Translational Sciences (NCATS), 2012)
